Source: the supplement of paper PMC8728848
Some of the results follow.

Experiments:
Assay in all cases: glycan array binding signal (z-score within array); higher = stronger binding
Conditions in all cases: glycan notation: IUPAC condensed, linker removed
Gal6S(b1-4)Glc6S = biological target: Gal6S(b1-4)Glc6S
Method in brief: (§1)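 The Consortium for Functional Glycomics database supplied 3228 glycan arrays, of which those lacking an available protein sequence were dropped. The binding signal, a within-array Z-score, was averaged across arrays of the same protein sequence and across linkers. Negative scores can be read as non-binding.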

Gal6S(b1-4)GlcNAc = biological target: Gal6S(b1-4)GlcNAc
Method in brief: as §1

Gal6S(b1-4)GlcNAc6S = biological target: Gal6S(b1-4)GlcNAc6S
Method in brief: as §1

GalNAc(a1-3)Gal = biological target: GalNAc(a1-3)Gal
Method in brief: as §1

GalNAc(a1-3)GalNAc = biological target: GalNAc(a1-3)GalNAc
Method in brief: as §1

[1] = biological target: GalNAc(a1-3)GalNAc(b1-3)Gal(a1-4)Gal(b1-4)Glc
Method in brief: as §1

[2] = biological target: GalNAc(a1-3)GalNAc(b1-3)Gal(a1-4)Gal(b1-4)GlcNAc
Method in brief: as §1

GalNAc(b1-3)Gal = biological target: GalNAc(b1-3)Gal
Method in brief: as §1

[3] = biological target: GalNAc(b1-3)Gal(a1-4)Gal(b1-4)GlcNAc
Method in brief: as §1

[4] = biological target: GalNAc(b1-3)Gal(a1-4)Gal(b1-4)GlcNAc(b1-3)Gal(b1-4)Glc
Method in brief: as §1

[5] = biological target: GalNAc(b1-3)Gal(a1-6)Gal(b1-4)Glc
Method in brief: as §1

GalNAc(b1-3)GalNAc = biological target: GalNAc(b1-3)GalNAc
Method in brief: as §1

GalNAc(b1-3)GlcNAc = biological target: GalNAc(b1-3)GlcNAc
Method in brief: as §1

GalNAc(b1-4)Gal(b1-4)Glc = biological target: GalNAc(b1-4)Gal(b1-4)Glc
Method in brief: as §1

GalNAc(b1-4)GlcNAc = biological target: GalNAc(b1-4)GlcNAc
Method in brief: as §1

[6] = biological target: GalNAc(b1-4)GlcNAc(b1-2)Man
Method in brief: as §1

[7] = biological target: GalNAc(b1-4)GlcNAc(b1-2)Man(a1-3)[GalNAc(b1-4)GlcNAc(b1-2)Man(a1-6)]Man(b1-4)GlcNAc(b1-4)GlcNAc
Method in brief: as §1

[8] = biological target: GalNAc(b1-4)GlcNAc(b1-3)GalNAc(b1-4)GlcNAc
Method in brief: as §1

GalNAc(b1-4)GlcNAc6S = biological target: GalNAc(b1-4)GlcNAc6S
Method in brief: as §1

GalNAc(b1-6)GalNAc = biological target: GalNAc(b1-6)GalNAc
Method in brief: as §1

GalNAc3S(b1-4)GlcNAc = biological target: GalNAc3S(b1-4)GlcNAc
Method in brief: as §1

GalNAc3S(b1-4)GlcNAc3S = biological target: GalNAc3S(b1-4)GlcNAc3S
Method in brief: as §1

[9] = biological target: GalNAc3S(b1-4)[Fuc(a1-3)]GlcNAc
Method in brief: as §1

GalNAc4S6S(b1-4)GlcNAc = biological target: GalNAc4S6S(b1-4)GlcNAc
Method in brief: as §1

GalNAc6S(b1-4)GlcNAc = biological target: GalNAc6S(b1-4)GlcNAc
Method in brief: as §1

Glc(a1-4)Glc = biological target: Glc(a1-4)Glc
Method in brief: as §1

[10] = biological target: Glc(a1-4)Glc(a1-4)Glc(a1-4)Glc
Method in brief: as §1

Glc(a1-6)Glc(a1-6)Glc = biological target: Glc(a1-6)Glc(a1-6)Glc
Method in brief: as §1

[11] = biological target: Glc(a1-6)Glc(a1-6)Glc(a1-6)Glc
Method in brief: as §1

Glc(b1-4)Glc = biological target: Glc(b1-4)Glc
Method in brief: as §1

Glc(b1-6)Glc = biological target: Glc(b1-6)Glc
Method in brief: as §1

GlcA(b1-3)Gal = biological target: GlcA(b1-3)Gal
Method in brief: as §1

GlcA(b1-3)GlcNAc = biological target: GlcA(b1-3)GlcNAc
Method in brief: as §1

GlcA(b1-6)Gal = biological target: GlcA(b1-6)Gal
Method in brief: as §1

[12] = biological target: GlcA3S(b1-3)Gal(b1-4)GlcNAc(b1-2)Man
Method in brief: as §1

[13] = biological target: GlcA3S(b1-3)Gal(b1-4)GlcNAc(b1-3)Gal(b1-4)Glc
Method in brief: as §1

[14] = biological target: GlcNAc(a1-3)Gal(b1-4)GlcNAc
Method in brief: as §1

[15] = biological target: GlcNAc(a1-4)Gal(b1-3)GlcNAc
Method in brief: as §1

[16] = biological target: GlcNAc(a1-4)Gal(b1-4)GalNAc
Method in brief: as §1

[17] = biological target: GlcNAc(a1-4)Gal(b1-4)GlcNAc
Method in brief: as §1

[18] = biological target: GlcNAc(a1-4)Gal(b1-4)GlcNAc(b1-3)Gal(b1-4)Glc
Method in brief: as §1

[19] = biological target: GlcNAc(a1-4)Gal(b1-4)GlcNAc(b1-3)Gal(b1-4)GlcNAc
Method in brief: as §1

[20] = biological target: GlcNAc(a1-4)Gal(b1-4)GlcNAc(b1-3)Gal(b1-4)GlcNAc(b1-3)Gal(b1-4)GlcNAc
Method in brief: as §1

[21] = biological target: GlcNAc(a1-4)Gal(b1-4)GlcNAc(b1-3)Gal(b1-4)[Fuc(a1-3)]GlcNAc(b1-3)Gal(b1-4)[Fuc(a1-3)]GlcNAc
Method in brief: as §1

[22] = biological target: GlcNAc(a1-6)Gal(b1-4)GlcNAc
Method in brief: as §1

B1: SBD-G4S3-SBD (protein)
chain: MASIPSSASVQLDSYNYDGSTFSGKIYVKNIAYSKKVTVVYADGSDNWNNNGNIIAASFSGPISGSNYEYWTFSASVKGIKEFYIKYEVSGKTYYDNNNSANYQVSTGGGGSGGGGSGGGGSEFASIPSSASVQLDSYNYDGSTFSGKIYVKNIAYSKKVTVVYADGSDNWNNNGNIIAASFSGPISGSNYEYWTFSASVKGIKEFYIKYEVSGKTYYDNNNSANYQVST
- glycan array binding signal (z-score) (Gal6S(b1-4)Glc6S): -0.305
- glycan array binding signal (z-score) (Gal6S(b1-4)GlcNAc): 4.01
- glycan array binding signal (z-score) (Gal6S(b1-4)GlcNAc6S): 0.041
- glycan array binding signal (z-score) (GalNAc(a1-3)Gal): 1.05
- glycan array binding signal (z-score) (GalNAc(a1-3)GalNAc): -0.391
- glycan array binding signal (z-score) [1]: -0.403
- glycan array binding signal (z-score) [2]: -0.411
- glycan array binding signal (z-score) (GalNAc(b1-3)Gal): -0.339
- glycan array binding signal (z-score) [3]: -0.37
- glycan array binding signal (z-score) [4]: -0.385
- glycan array binding signal (z-score) [5]: -0.283
- glycan array binding signal (z-score) (GalNAc(b1-3)GalNAc): -0.346
- glycan array binding signal (z-score) (GalNAc(b1-3)GlcNAc): -0.02
- glycan array binding signal (z-score) (GalNAc(b1-4)Gal(b1-4)Glc): -0.124
- glycan array binding signal (z-score) (GalNAc(b1-4)GlcNAc): -0.394
- glycan array binding signal (z-score) [6]: -0.336
- glycan array binding signal (z-score) [7]: 0.931
- glycan array binding signal (z-score) [8]: -0.38
- glycan array binding signal (z-score) (GalNAc(b1-4)GlcNAc6S): -0.206
- glycan array binding signal (z-score) (GalNAc(b1-6)GalNAc): -0.383
- glycan array binding signal (z-score) (GalNAc3S(b1-4)GlcNAc): -0.382
- glycan array binding signal (z-score) (GalNAc3S(b1-4)GlcNAc3S): -0.383
- glycan array binding signal (z-score) [9]: -0.395
- glycan array binding signal (z-score) (GalNAc4S6S(b1-4)GlcNAc): -0.365
- glycan array binding signal (z-score) (GalNAc6S(b1-4)GlcNAc): -0.25
- glycan array binding signal (z-score) (Glc(a1-4)Glc): -0.323
- glycan array binding signal (z-score) [10]: 5.44
- glycan array binding signal (z-score) (Glc(a1-6)Glc(a1-6)Glc): -0.409
- glycan array binding signal (z-score) [11]: -0.28
- glycan array binding signal (z-score) (Glc(b1-4)Glc): -0.278
- glycan array binding signal (z-score) (Glc(b1-6)Glc): -0.204
- glycan array binding signal (z-score) (GlcA(b1-3)Gal): -0.434
- glycan array binding signal (z-score) (GlcA(b1-3)GlcNAc): -0.221
- glycan array binding signal (z-score) (GlcA(b1-6)Gal): -0.148
- glycan array binding signal (z-score) [12]: -0.348
- glycan array binding signal (z-score) [13]: -0.303
- glycan array binding signal (z-score) [14]: -0.404
- glycan array binding signal (z-score) [15]: -0.314
- glycan array binding signal (z-score) [16]: -0.375
- glycan array binding signal (z-score) [17]: -0.29
- glycan array binding signal (z-score) [18]: -0.307
- glycan array binding signal (z-score) [19]: -0.255
- glycan array binding signal (z-score) [20]: -0.025
- glycan array binding signal (z-score) [21]: -0.205
- glycan array binding signal (z-score) [22]: -0.2
